Inconclusive means that the source gave no clear call. Such entries were picked first, then a sample of the others. Potencies beside an inconclusive call are fits to weak or partial responses and may not hold up. Active and inactive are the calls of the source. Calls come from the whole dose curve; as a rule, active = well fitted cell-killing curve with a large enough effect; inconclusive = small, poorly fitted or top-dose-only effect, or effect the other way; inactive = no such curve, though single readings can be large or run the other way.
Assay: Viability qHTS for spleen associated tyrosine kinase inhibitor (SYKi) naive MV4-11 cells (AID 1963823); note: nearly all actives have a fitted effect of over 40% in size
Conditions: MV4-11 AML viability, CellTiter-Glo luminescence, 72 h; viability (% of control): at 45 µM (top of the series)
Method in brief: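 CellTiter-Glo luminescence, 10 min room-temperature incubation, gave viability. Cells: naive MV4-11 (500/well), treated 72 hr at 37 C, 5% CO2.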
Potency is the fitted concentration of half-maximal effect; tags give direction and shape of the fitted curve.

SMILES	Potency	viability (% of control)
COC(=O)[C@@H](O)[C@H]1[C@@]2(C)CC3(O)[C@@H](C(=O)[C@H]2O)[C@]24O[C@]25CC(=O)O[C@@H](c2ccoc2)[C@]5(C)CCC4[C@]13C (some centres undefined)	inactive	–
C#Cc1cccc(Nc2nc3cc(C(=O)O)ccc3c3cncnc23)c1	active: 5.17 µM	–
COC(=O)C1=COC(OC2OC(CO)C(O)C(O)C2O)C2C1C=CC2(O)CO (centres undefined)	inactive	–
C=C[C@]1(C)C=C2CCC3C(C)(CCC[C@@]3(C)C(=O)O)C2CC1 (some centres undefined)	inactive	–
CC(=O)OC1C(CO)OC(O[C@H]2[C@H](OC(=O)[C@]34CCC(C)(C)C[C@H]3C3=CCC5[C@@]6(C)CC[C@H](O[C@@H]7O[C@H](C(=O)O)[C@@H](O)[C@H](O[C@@H]8OC[C@@H](O)[C@H](O)[C@H]8O)[C@H]7O[C@@H]7O[C@H](CO)[C@H](O)[C@H](O)[C@H]7O)[C@@](C)(C=O)C6CC[C@@]5(C)[C@]3(C)C[C@H]4O)O[C@H](C)[C@H](OC3OC(C)C(OC4OCC(O)C(O)C4O)C(O)C3O)[C@@H]2O)C(O)C1O (some centres undefined)	–	inactive: 87.3% [at 9.25 µM]
CC(Oc1cc(-n2cnc3ccc(CN4CCN(C)CC4)cc32)sc1C(N)=O)c1ccccc1C(F)(F)F (centres undefined)	inconclusive: 0.731 µM [cytotoxic, full curve]	–
O=C(O)CCc1cccc(O)c1O[C@@H]1O[C@H](CO)[C@@H](O)[C@H](O)[C@H]1O	inactive	–
C=C1C(=O)O[C@@H]2/C=C(\C)CC/C=C(\C)CC[C@@H]12	active: 7.31 µM	–
CC(C)=CCCC1(C)C=Cc2c(c(C)cc3c2[nH]c2ccccc23)O1 (centres undefined)	inconclusive: 14.3 µM [cytotoxic, partial curve]	–

From PubChem BioAssay (NCATS)
